Laboratory results taken from patent US20220298214A1 (XINTRUM PHARMACEUTICALS, published 2022).

What was measured:
[1] = molecular target: GLP-1 receptor (UniProt P43220); test: cell-based or functional assay
[2] = molecular target: T1, GIP receptor (UniProt P48546 22-466, limits assumed); test: cell-based or functional assay
T1 sequence (looked up): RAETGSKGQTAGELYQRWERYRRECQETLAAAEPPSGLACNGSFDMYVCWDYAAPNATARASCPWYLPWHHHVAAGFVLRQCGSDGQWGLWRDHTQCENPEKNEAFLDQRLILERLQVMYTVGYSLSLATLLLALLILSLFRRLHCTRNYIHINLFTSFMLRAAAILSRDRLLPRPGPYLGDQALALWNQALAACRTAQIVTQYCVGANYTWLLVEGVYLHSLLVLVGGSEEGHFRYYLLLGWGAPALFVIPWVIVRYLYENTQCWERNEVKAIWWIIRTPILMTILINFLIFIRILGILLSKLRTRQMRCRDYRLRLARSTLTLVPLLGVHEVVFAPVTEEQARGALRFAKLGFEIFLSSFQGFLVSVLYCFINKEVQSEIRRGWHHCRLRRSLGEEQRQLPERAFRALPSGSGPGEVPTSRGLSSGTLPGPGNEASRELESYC

- EC50 value (pM), luciferase reporter gene (CRE-Luc) in HEK293-GLP1R-CRE-Luc cells [1]: 46.1 pM
- EC50 value (pM), cAMP production in CHO-K1-GIPR cells [2]: 35.3 pM
B1: double-receptor agonist protein GGF7 (ligand)
chain: YGEGTFTSDYSIYLDKQAQRAFVEWLLAQGPSSGAPPPSGGGGSGGGGSGGGGSA[human IgG4 Fc with S228P F234A L235A (EU numbers) skipped]
